# Source: the supplement of paper PMC8728848
# This is one part of the list.
# B1: Als3-N (Candida albicans) (protein)
# chain: KTITGVFNSFNSLTWSNAATYNYKGPGTPTWNAVLGWSLDGTSASPGDTFTLNMPCVFKFTTSQTSVDLTAHGVKYATCQFQAGEEFMTFSTLTCTVSNTLTPSIKALGTVTLPLAFNVGGTGSSVDLEDSKCFTAGTNTVTFNDGGKKISINVDFERSNVDPKGYLTDSRVIPSLNKVSTLFVAPQCANGYTSGTMGFANTYGDVQIDCSNIHVGITKGLNDWNYPVSSESFSYTKTCSSNGIFITYKNVPAGYRPFVDAYISATDVNSYTLSYANEYTCAGGYWQRAPFTLRWTGYRNSDAGSNGIVIVATTRTVTDSTTAVTTLPFDPNRDKTKTIEILKPIPTTTITTSYVGVTTSYLTKTAPIGETATVIVDIPYHTTTTVTSKWTGTITSTTTHTNPTDSIDTVIVQVP
# Tests used:
# Assay in all cases: glycan array binding signal (z-score within array); higher = stronger binding
# Conditions in all cases: glycan notation: IUPAC condensed, linker removed
# [1] = target: Gal3S(b1-3)[Fuc(a1-4)]GlcNAc
# In short: (§1)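 Glycan array data were curated from 3228 arrays in the Consortium for Functional Glycomics database and kept only where the protein sequence was available. Glycan names were converted to IUPAC-condensed notation, and columns mapping to the same glycan were averaged. The binding signal is a within-array Z-score, averaged across arrays of the same protein sequence at different concentrations or buffers and across linkers. Negative Z-scores can be read as non-binding.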
# Gal3S(b1-4)Glc = target: Gal3S(b1-4)Glc
# In short: as §1
# Gal3S(b1-4)Glc6S = target: Gal3S(b1-4)Glc6S
# In short: as §1
# Gal3S(b1-4)GlcNAc = target: Gal3S(b1-4)GlcNAc
# In short: as §1
# [2] = target: Gal3S(b1-4)[Fuc(a1-3)]Glc6S
# In short: as §1
# [3] = target: Gal3S(b1-4)[Fuc(a1-3)]GlcNAc
# In short: as §1
# [4] = target: Gal3S(b1-4)[Fuc(a1-3)]GlcNAc6S
# In short: as §1
# Gal3S4S(b1-4)GlcNAc = target: Gal3S4S(b1-4)GlcNAc
# In short: as §1
# Gal3S6S(b1-4)GlcNAc = target: Gal3S6S(b1-4)GlcNAc
# In short: as §1
# Gal3S6S(b1-4)GlcNAc6S = target: Gal3S6S(b1-4)GlcNAc6S
# In short: as §1
# Gal4S(b1-4)GlcNAc = target: Gal4S(b1-4)GlcNAc
# In short: as §1
# Gal4S6S(b1-4)GlcNAc = target: Gal4S6S(b1-4)GlcNAc
# In short: as §1
# Gal6P(b1-4)GlcNAc = target: Gal6P(b1-4)GlcNAc
# In short: as §1
# Gal6S(b1-3)GlcNAc = target: Gal6S(b1-3)GlcNAc
# In short: as §1
# Gal6S(b1-3)GlcNAc6S = target: Gal6S(b1-3)GlcNAc6S
# In short: as §1
# Gal6S(b1-4)Glc = target: Gal6S(b1-4)Glc
# In short: as §1
# Gal6S(b1-4)Glc6S = target: Gal6S(b1-4)Glc6S
# In short: as §1
# Gal6S(b1-4)GlcNAc = target: Gal6S(b1-4)GlcNAc
# In short: as §1
# Gal6S(b1-4)GlcNAc6S = target: Gal6S(b1-4)GlcNAc6S
# In short: as §1
# GalNAc(a1-3)Gal = target: GalNAc(a1-3)Gal
# In short: as §1
# GalNAc(a1-3)GalNAc = target: GalNAc(a1-3)GalNAc
# In short: as §1
# [5] = target: GalNAc(a1-3)GalNAc(b1-3)Gal(a1-4)Gal(b1-4)Glc
# In short: as §1
# [6] = target: GalNAc(a1-3)GalNAc(b1-3)Gal(a1-4)Gal(b1-4)GlcNAc
# In short: as §1
# GalNAc(b1-3)Gal = target: GalNAc(b1-3)Gal
# In short: as §1
# [7] = target: GalNAc(b1-3)Gal(a1-4)Gal(b1-4)GlcNAc
# In short: as §1
# [8] = target: GalNAc(b1-3)Gal(a1-4)Gal(b1-4)GlcNAc(b1-3)Gal(b1-4)Glc
# In short: as §1
# [9] = target: GalNAc(b1-3)Gal(a1-6)Gal(b1-4)Glc
# In short: as §1
# GalNAc(b1-3)GalNAc = target: GalNAc(b1-3)GalNAc
# In short: as §1
# GalNAc(b1-3)GlcNAc = target: GalNAc(b1-3)GlcNAc
# In short: as §1
# GalNAc(b1-4)Gal(b1-4)Glc = target: GalNAc(b1-4)Gal(b1-4)Glc
# In short: as §1
# GalNAc(b1-4)GlcNAc = target: GalNAc(b1-4)GlcNAc
# In short: as §1
# [10] = target: GalNAc(b1-4)GlcNAc(b1-2)Man
# In short: as §1
# [11] = target: GalNAc(b1-4)GlcNAc(b1-2)Man(a1-3)[GalNAc(b1-4)GlcNAc(b1-2)Man(a1-6)]Man(b1-4)GlcNAc(b1-4)GlcNAc
# In short: as §1
# [12] = target: GalNAc(b1-4)GlcNAc(b1-3)GalNAc(b1-4)GlcNAc
# In short: as §1
# GalNAc(b1-4)GlcNAc6S = target: GalNAc(b1-4)GlcNAc6S
# In short: as §1
# GalNAc(b1-6)GalNAc = target: GalNAc(b1-6)GalNAc
# In short: as §1
# GalNAc3S(b1-4)GlcNAc = target: GalNAc3S(b1-4)GlcNAc
# In short: as §1
binder,measurement,setting,value
B1,glycan array binding signal (z-score),[1],-0.039
same,glycan array binding signal (z-score),Gal3S(b1-4)Glc,-0.25
same,glycan array binding signal (z-score),Gal3S(b1-4)Glc6S,-0.166
same,glycan array binding signal (z-score),Gal3S(b1-4)GlcNAc,-0.188
same,glycan array binding signal (z-score),[2],0.799
same,glycan array binding signal (z-score),[3],-0.241
same,glycan array binding signal (z-score),[4],-0.215
same,glycan array binding signal (z-score),Gal3S4S(b1-4)GlcNAc,-0.088
same,glycan array binding signal (z-score),Gal3S6S(b1-4)GlcNAc,-0.146
same,glycan array binding signal (z-score),Gal3S6S(b1-4)GlcNAc6S,-0.089
same,glycan array binding signal (z-score),Gal4S(b1-4)GlcNAc,-0.268
same,glycan array binding signal (z-score),Gal4S6S(b1-4)GlcNAc,-0.043
same,glycan array binding signal (z-score),Gal6P(b1-4)GlcNAc,-0.315
same,glycan array binding signal (z-score),Gal6S(b1-3)GlcNAc,-0.057
same,glycan array binding signal (z-score),Gal6S(b1-3)GlcNAc6S,-0.216
same,glycan array binding signal (z-score),Gal6S(b1-4)Glc,-0.186
same,glycan array binding signal (z-score),Gal6S(b1-4)Glc6S,-0.074
same,glycan array binding signal (z-score),Gal6S(b1-4)GlcNAc,-0.293
same,glycan array binding signal (z-score),Gal6S(b1-4)GlcNAc6S,-0.275
same,glycan array binding signal (z-score),GalNAc(a1-3)Gal,0.149
same,glycan array binding signal (z-score),GalNAc(a1-3)GalNAc,-0.159
same,glycan array binding signal (z-score),[5],-0.271
same,glycan array binding signal (z-score),[6],-0.242
same,glycan array binding signal (z-score),GalNAc(b1-3)Gal,-0.183
same,glycan array binding signal (z-score),[7],-0.167
same,glycan array binding signal (z-score),[8],-0.222
same,glycan array binding signal (z-score),[9],-0.246
same,glycan array binding signal (z-score),GalNAc(b1-3)GalNAc,0.013
same,glycan array binding signal (z-score),GalNAc(b1-3)GlcNAc,-0.135
same,glycan array binding signal (z-score),GalNAc(b1-4)Gal(b1-4)Glc,-0.074
same,glycan array binding signal (z-score),GalNAc(b1-4)GlcNAc,0.163
same,glycan array binding signal (z-score),[10],0.231
same,glycan array binding signal (z-score),[11],-0.214
same,glycan array binding signal (z-score),[12],0.102
same,glycan array binding signal (z-score),GalNAc(b1-4)GlcNAc6S,-0.145
same,glycan array binding signal (z-score),GalNAc(b1-6)GalNAc,-0.232
same,glycan array binding signal (z-score),GalNAc3S(b1-4)GlcNAc,-0.328
